The RNAGym collection of RNA variant scans (doi:10.1073/pnas.2313332121)
This sample is rich in variants without activity.

B1: TPR 5TU (parent)
chain: GGAUCUUCUCGAUCUAACAAAAAAGACAAAUCUGCCACAAAGCUUGAGAGCAUCUUCGGAUGCAGAGGCGGCAGCCUUCGGUGGCGCGAUAGCGCCAACGUUCUCAACUAUGACACGCAAAACGCGUGCUCCGUUGAAUGGAGUUUAUCAUG

Variants of: B1
Assay: polymerase ribozyme fitness, log enrichment relative to wild type (log ratio); higher = more active; in vitro selection for triplet polymerase activity
Summary of the method: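 Each subunit of a heterodimeric triplet polymerase ribozyme was represented by a PCR-built, transcribed mutant library that underwent triplicate single-round in vitro selection with frozen incubation at −7 °C. Extended constructs were recovered by gel excision, streptavidin-bead capture and RT-PCR, and Illumina sequencing of input and output libraries kept genotypes with ≥10 input reads and ≥1 read per output. Fitness is the logarithm of genotype enrichment relative to wild-type enrichment, from inverse-variance-weighted replicate averages, with a logarithm base of 2.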

Row | Variant | polymerase ribozyme fitness (log ratio)
1 | C10A A30U A49C U77C C87U G152U | ≤ -4.2
2 | C10G A30U A60C A73C G81U G94U U139A A150C | ≤ -4.2
3 | C10U G11A C14G A26G C93G C114G A115U U148A | ≤ -4.2
4 | C10A G70C U146C | ≤ -4.2
5 | C10G C63U G94C U104C A106G C108A U139C | ≤ -4.2
6 | C10G U44A C95A A97U C132A U139G U144C | ≤ -4.2
7 | C10U C14G C27A A41C G92A C103U A113G A115G G117A G140C | ≤ -4.2
8 | C10G A17C C27G A28C U31A G94A C125A A138U | ≤ -4.2
9 | C10G C149G | ≤ -4.2
10 | C10U A91U G92C C95A G124A | ≤ -4.2
11 | C10U A20U A22C A39U A52C U55A C69A A142G | ≤ -4.2
12 | C10G U31A C76G G84U G117U G141U A150G | ≤ -4.2
13 | C10G U15C A17U A19G A29C A40U C93G C103G | ≤ -4.2
14 | C10U A49U A142C | ≤ -4.2
15 | C10G G11A A22U A26G C38U A49C G50A G92A A147G | ≤ -4.2
16 | C10G A24G C32A G42U C75A C79A C85G A98C A110U A115U G140C U145G | ≤ -4.2
17 | C10A C36A C43U G86A C105G G141C | ≤ -4.2
18 | C10G G11A A29U A47C A52C G58C C72U C79A G81U C85A U109G | ≤ -4.2
19 | C10A A41C A47C U55A C93A C95U A150C | ≤ -4.2
20 | C10G C35G G94C | ≤ -4.2
21 | C10U C43A U78A C87U U134G A142C | ≤ -4.2

Row | Variant | polymerase ribozyme fitness (log ratio)
22 | C10G U44G G58U G80U C87A U127G U144C | ≤ -4.2
23 | C10G A24U G48C C54U G83A C132G G133C | ≤ -4.2
24 | C10G A106C G143C | ≤ -4.2
25 | C10A U44G U56G C57U A66C C87U A106G A142U | ≤ -4.2
26 | C10U A17G G42A C105U U109G G133A U134C | ≤ -4.2
27 | C10U A22U A29G U61A C95G G133U G136C | ≤ -4.2
28 | C10A U15G A17G C75G C99U A113C G133C U134G G141C | ≤ -4.2
29 | C10G A26G C85G G143C | ≤ -4.2
30 | C10G A24U G128A | ≤ -4.2
31 | C10U A21U A28U A40U U56C G70C U102A | ≤ -4.2
32 | C10G G42C G50A C69U G86C C99U U145G | ≤ -4.2
33 | C10G G58U C69A C85U C132G G133C G141C | ≤ -4.2
34 | C10U G94A C96U C99G U144G | ≤ -4.2
35 | C10U A12U A19G A37G U44G U55A A150G | ≤ -4.2
36 | C10G A26U G67U G83U C93G | ≤ -4.2
37 | C10U C32G G42U G81C C108G G128A C131A A138U | ≤ -4.2
38 | C10U G42C A49C A66G C79G A91G C125A A147G A150C | ≤ -4.2
39 | C10G A16U A60G C96G C108U G152A | ≤ -4.2
40 | C10G C36U U55A C95U C96A A122C | ≤ -4.2
41 | C10G A20C C36A U53A U134A A142U | ≤ -4.2
42 | C10G A52G U56A C96U G140U | ≤ -4.2

Row | Variant | polymerase ribozyme fitness (log ratio)
43 | C10U C87U C96U | ≤ -4.2
44 | C10A U13G A28U A40G U55G U77A C85G A120C | ≤ -4.2
45 | C10U C14G C76A | ≤ -4.2
46 | C10G C36U A52G G94C A107U | ≤ -4.2
47 | C10U G42C A52C A64C G94A | ≤ -4.2
48 | C10G U31C A98G U151A | ≤ -4.2
49 | C10G C14U A24G A49C U53A G67A C103G G141A C149G | ≤ -4.2
50 | C10A U45A U82G G84U C87G C95A | ≤ -4.2
51 | C10A U13G A17U A41G G50C G100U U145A | ≤ -4.2
52 | C10G G25C A41U U77C C85A C99U G140U | ≤ -4.2
53 | C10U U45G A60C C85U | ≤ -4.2
54 | C10G A16U A17C A41C A106G | ≤ -4.2
55 | C10A C36U C57G C69A C87U | ≤ -4.2
56 | C10A C85G G100U U102A C105G A147C | ≤ -4.2
57 | C10G C27A C36G G48A C51A C93G G100C G140C | ≤ -4.2
58 | C10G A16U G143C | ≤ -4.2
59 | C10G C75U | -3.87
60 | C10G C35U G62C C63G G65U G84U U101G A107C G117U | ≤ -4.2
61 | C10G C14G G42A A47C C87U C93G A106G | ≤ -4.2
62 | C10G A60C G71U C85A C87A G126A G152A | ≤ -4.2
63 | C10U C18G A19C A40U C87G G88U | ≤ -4.2

Row | Variant | polymerase ribozyme fitness (log ratio)
64 | C10U A29C G59C C125U G140U | ≤ -4.2
65 | C10U C27A A28C G84U C87A C103A C123G | ≤ -4.2
66 | C10G A30G G42U A47C C76U C93G A121U | ≤ -4.2
67 | C10U C35U G50A G65C C85U C93U C149A | ≤ -4.2
68 | C10A A22U A39U G48U C85U | ≤ -4.2
69 | C10A U13C C18U U55G U56A G94A A138G U151G | ≤ -4.2
70 | C10A C118U U130G | ≤ -4.2
71 | C10G G48A | ≤ -4.2
72 | C10G A29C C75A G92U G128U C131U G140U | ≤ -4.2
73 | C10A U78C U104C | ≤ -4.2
74 | C10A A23C U90C A97U U139G | ≤ -4.2
75 | C10A A30U G48U C54U G92U G140A | ≤ -4.2
76 | C10G G94A A119U | ≤ -4.2
77 | C10G U61C G86C C105G A119C | ≤ -4.2
78 | C10U A17C A39U G92A U139G | ≤ -4.2
79 | C10U U56G C57U G70A C79G C85U U139C | ≤ -4.2
80 | C10G G50A C57A C96U U109C | ≤ -4.2
81 | C10G A17G G48A A52U U78C A91U C95U U135G | ≤ -4.2
82 | C10U G48C C85G | ≤ -4.2
83 | C10A C32G U55G C72U C95G C96A A142G | ≤ -4.2
